# From the supplement of paper PMC8728848
# This is one part of the list.
# What was measured:
# Assay in all cases: glycan array binding signal (z-score within array); higher = stronger binding
# Conditions in all cases: glycan notation: IUPAC condensed, linker removed
# [1] = target: Gal(b1-4)GlcNAc(b1-3)Gal(b1-4)GlcNAc(b1-3)Gal(b1-4)GlcNAc(b1-2)Man(a1-3)[Gal(b1-4)GlcNAc(b1-3)Gal(b1-4)GlcNAc(b1-3)Gal(b1-4)GlcNAc(b1-2)Man(a1-6)]Man(b1-4)GlcNAc(b1-4)GlcNAc
# Outline: (§1)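 Glycan array data came from 3228 arrays in the Consortium for Functional Glycomics database, and only arrays with an available protein sequence were kept. Glycan names were put into IUPAC-condensed notation, and columns mapping to the same glycan were averaged. The binding signal is a within-array Z-score, averaged across arrays of one protein sequence run at different concentrations or buffers and across linkers. A negative Z-score can be read as non-binding.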
# [2] = target: Gal(b1-4)GlcNAc(b1-3)Gal(b1-4)GlcNAc(b1-3)Gal(b1-4)GlcNAc(b1-2)Man(a1-3)[Gal(b1-4)GlcNAc(b1-3)Gal(b1-4)GlcNAc(b1-3)Gal(b1-4)GlcNAc(b1-2)Man(a1-6)]Man(b1-4)GlcNAc(b1-4)[Fuc(a1-6)]GlcNAc
# Outline: as §1
# [3] = target: Gal(b1-4)GlcNAc(b1-3)Gal(b1-4)GlcNAc(b1-3)Gal(b1-4)GlcNAc(b1-2)[Gal(b1-4)GlcNAc(b1-3)Gal(b1-4)GlcNAc(b1-3)Gal(b1-4)GlcNAc(b1-6)]Man(a1-6)[Gal(b1-4)GlcNAc(b1-3)Gal(b1-4)GlcNAc(b1-3)Gal(b1-4)GlcNAc(b1-2)Man(a1-3)]Man(b1-4)GlcNAc(b1-4)[Fuc(a1-6)]GlcNAc
# Outline: as §1
# [4] = target: Gal(b1-4)GlcNAc(b1-3)Gal(b1-4)GlcNAc(b1-3)Gal(b1-4)GlcNAc(b1-3)Gal(b1-4)GlcNAc(b1-2)Man(a1-3)[Gal(b1-4)GlcNAc(b1-3)Gal(b1-4)GlcNAc(b1-3)Gal(b1-4)GlcNAc(b1-3)Gal(b1-4)GlcNAc(b1-2)Man(a1-6)]Man(b1-4)GlcNAc(b1-4)GlcNAc
# Outline: as §1
# [5] = target: Gal(b1-4)GlcNAc(b1-3)Gal(b1-4)GlcNAc(b1-3)Gal(b1-4)GlcNAc(b1-3)Gal(b1-4)GlcNAc(b1-2)Man(a1-3)[Gal(b1-4)GlcNAc(b1-3)Gal(b1-4)GlcNAc(b1-3)Gal(b1-4)GlcNAc(b1-3)Gal(b1-4)GlcNAc(b1-2)Man(a1-6)]Man(b1-4)GlcNAc(b1-4)[Fuc(a1-6)]GlcNAc
# Outline: as §1
# [6] = target: Gal(b1-4)GlcNAc(b1-3)Gal(b1-4)GlcNAc(b1-3)Gal(b1-4)GlcNAc(b1-3)Gal(b1-4)GlcNAc(b1-2)[Gal(b1-4)GlcNAc(b1-3)Gal(b1-4)GlcNAc(b1-3)Gal(b1-4)GlcNAc(b1-3)Gal(b1-4)GlcNAc(b1-6)]Man(a1-6)[Gal(b1-4)GlcNAc(b1-3)Gal(b1-4)GlcNAc(b1-3)Gal(b1-4)GlcNAc(b1-3)Gal(b1-4)GlcNAc(b1-2)Man(a1-3)]Man(b1-4)GlcNAc(b1-4)[Fuc(a1-6)]GlcNAc
# Outline: as §1
# [7] = target: Gal(b1-4)GlcNAc(b1-3)Gal(b1-4)GlcNAc(b1-3)Gal(b1-4)GlcNAc(b1-3)Gal(b1-4)GlcNAc(b1-3)Gal(b1-4)GlcNAc(b1-2)Man(a1-3)[Gal(b1-4)GlcNAc(b1-3)Gal(b1-4)GlcNAc(b1-3)Gal(b1-4)GlcNAc(b1-3)Gal(b1-4)GlcNAc(b1-3)Gal(b1-4)GlcNAc(b1-2)Man(a1-6)]Man(b1-4)GlcNAc(b1-4)GlcNAc
# Outline: as §1
# [8] = target: Gal(b1-4)GlcNAc(b1-3)Gal(b1-4)GlcNAc(b1-3)Gal(b1-4)GlcNAc(b1-3)Gal(b1-4)GlcNAc(b1-3)Gal(b1-4)GlcNAc(b1-2)Man(a1-3)[Gal(b1-4)GlcNAc(b1-3)Gal(b1-4)GlcNAc(b1-3)Gal(b1-4)GlcNAc(b1-3)Gal(b1-4)GlcNAc(b1-3)Gal(b1-4)GlcNAc(b1-2)Man(a1-6)]Man(b1-4)GlcNAc(b1-4)[Fuc(a1-6)]GlcNAc
# Outline: as §1
# [9] = target: Gal(b1-4)GlcNAc(b1-3)Gal(b1-4)GlcNAc(b1-3)Gal(b1-4)GlcNAc(b1-3)Gal(b1-4)GlcNAc(b1-3)Gal(b1-4)GlcNAc(b1-2)[Gal(b1-4)GlcNAc(b1-3)Gal(b1-4)GlcNAc(b1-3)Gal(b1-4)GlcNAc(b1-3)Gal(b1-4)GlcNAc(b1-3)Gal(b1-4)GlcNAc(b1-6)]Man(a1-6)[Gal(b1-4)GlcNAc(b1-3)Gal(b1-4)GlcNAc(b1-3)Gal(b1-4)GlcNAc(b1-3)Gal(b1-4)GlcNAc(b1-3)Gal(b1-4)GlcNAc(b1-2)Man(a1-3)]Man(b1-4)GlcNAc(b1-4)[Fuc(a1-6)]GlcNAc
# Outline: as §1
# [10] = target: Gal(b1-4)GlcNAc(b1-3)Gal(b1-4)GlcNAc(b1-3)Gal(b1-4)GlcNAc(b1-3)Gal(b1-4)GlcNAc(b1-3)Gal(b1-4)GlcNAc(b1-3)Gal(b1-4)GlcNAc(b1-2)Man(a1-3)[Gal(b1-4)GlcNAc(b1-3)Gal(b1-4)GlcNAc(b1-3)Gal(b1-4)GlcNAc(b1-3)Gal(b1-4)GlcNAc(b1-3)Gal(b1-4)GlcNAc(b1-3)Gal(b1-4)GlcNAc(b1-2)Man(a1-6)]Man(b1-4)GlcNAc(b1-4)GlcNAc
# Outline: as §1
# [11] = target: Gal(b1-4)GlcNAc(b1-3)Gal(b1-4)GlcNAc(b1-3)GalNAc
# Outline: as §1
# [12] = target: Gal(b1-4)GlcNAc(b1-3)Gal(b1-4)GlcNAc(b1-3)[Gal(b1-4)GlcNAc(b1-3)Gal(b1-4)GlcNAc(b1-6)]GalNAc
# Outline: as §1
# [13] = target: Gal(b1-4)GlcNAc(b1-3)Gal(b1-4)GlcNAc(b1-6)[Gal(b1-3)]GalNAc
# Outline: as §1
# [14] = target: Gal(b1-4)GlcNAc(b1-3)Gal(b1-4)[Fuc(a1-3)]GlcNAc(b1-3)Gal(b1-4)[Fuc(a1-3)]GlcNAc
# Outline: as §1
# [15] = target: Gal(b1-4)GlcNAc(b1-3)GalNAc
# Outline: as §1
# [16] = target: Gal(b1-4)GlcNAc(b1-3)[Fuc(a1-3)GlcNAc(b1-6)]Gal(b1-4)Glc
# Outline: as §1
# [17] = target: Gal(b1-4)GlcNAc(b1-3)[Gal(b1-4)GlcNAc(b1-6)]Gal(b1-4)GlcNAc
# Outline: as §1
# [18] = target: Gal(b1-4)GlcNAc(b1-3)[GlcNAc(b1-6)]Gal(b1-4)GlcNAc
# Outline: as §1
# [19] = target: Gal(b1-4)GlcNAc(b1-6)Gal(b1-4)GlcNAc
# Outline: as §1
binder,measurement,setting,value
PX14343A-bvu-539-29-539 (Bacteroides vulgatus) (protein) DSLTESSSNTFWQTPDDALMALASCYDALQSNQLYNSDQYSLGPLYMDCISDNGGHFNWSGWMEGYDMAMGIHTPSSSIIGSYWKDCYEVISRCNVLIANIDRVDMDASQKAIYQAEAKTIRALMYINLTMTYQDVPFLTAPLTIDEAECEKTDRAAIVAHVMTDLQDAAEVLPQNASSRGHITKGAALSLLGRVALYNEKWDDAIAAYKQVQGLGYSLDPSYAKLFTQSGETSPEIIFAVRYEGPGMSEGAAFNAHWNTPLEAMNGTIDLADAYYCKDGKPTTDTKIAELNGGGGLDVSKPNPAHFENRDPRLYSTLFVPGMLWNGKGGIDTSASNPYANVYGGAAASLSTVYVYKYFDPTDTSNSWDNGQDFYVVRYAEVLLSLAEAMVQKGGYVYSDVTALVNEVRQRADVNMPTVEEVEGTSLSKDELLEVIKHERRVELAFEGLRLFDLYRWKELDKAVANIENERTMYGLAYEARKFNGERDYVWPLPTAELDTNKKLVQHDLWK,glycan array binding signal (z-score),[1],1.35
same,glycan array binding signal (z-score),[2],0.909
same,glycan array binding signal (z-score),[3],-0.078
same,glycan array binding signal (z-score),[4],6.18
same,glycan array binding signal (z-score),[5],0.053
same,glycan array binding signal (z-score),[6],3.38
same,glycan array binding signal (z-score),[7],2.78
same,glycan array binding signal (z-score),[8],1.07
same,glycan array binding signal (z-score),[9],9.28
same,glycan array binding signal (z-score),[10],0.22
same,glycan array binding signal (z-score),[11],-0.359
same,glycan array binding signal (z-score),[12],-0.061
same,glycan array binding signal (z-score),[13],0.032
same,glycan array binding signal (z-score),[14],0.322
same,glycan array binding signal (z-score),[15],-0.392
same,glycan array binding signal (z-score),[16],-0.334
same,glycan array binding signal (z-score),[17],-0.223
same,glycan array binding signal (z-score),[18],-0.381
same,glycan array binding signal (z-score),[19],-0.311
